Results reported in publication PMC4336329 (PLoS ONE, 2015).
Among all 310,000 compounds or so, about 14,000 (4.5%) showed an effect of 50% or more. The effect is printed as a negative number. Some of the results follow.

What follows are molecules tested against human ether-à-go-go-related gene (hERG) potassium channel (human, UniProt Q12809) (assay: primary screen, population patch clamp on CHO cells stably expressing hERG).
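Note: peak tail current of the secondary pulse compared with the same well before compound.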

Sequence of human ether-à-go-go-related gene (hERG) potassium channel (Q12809 whole entry, looked up): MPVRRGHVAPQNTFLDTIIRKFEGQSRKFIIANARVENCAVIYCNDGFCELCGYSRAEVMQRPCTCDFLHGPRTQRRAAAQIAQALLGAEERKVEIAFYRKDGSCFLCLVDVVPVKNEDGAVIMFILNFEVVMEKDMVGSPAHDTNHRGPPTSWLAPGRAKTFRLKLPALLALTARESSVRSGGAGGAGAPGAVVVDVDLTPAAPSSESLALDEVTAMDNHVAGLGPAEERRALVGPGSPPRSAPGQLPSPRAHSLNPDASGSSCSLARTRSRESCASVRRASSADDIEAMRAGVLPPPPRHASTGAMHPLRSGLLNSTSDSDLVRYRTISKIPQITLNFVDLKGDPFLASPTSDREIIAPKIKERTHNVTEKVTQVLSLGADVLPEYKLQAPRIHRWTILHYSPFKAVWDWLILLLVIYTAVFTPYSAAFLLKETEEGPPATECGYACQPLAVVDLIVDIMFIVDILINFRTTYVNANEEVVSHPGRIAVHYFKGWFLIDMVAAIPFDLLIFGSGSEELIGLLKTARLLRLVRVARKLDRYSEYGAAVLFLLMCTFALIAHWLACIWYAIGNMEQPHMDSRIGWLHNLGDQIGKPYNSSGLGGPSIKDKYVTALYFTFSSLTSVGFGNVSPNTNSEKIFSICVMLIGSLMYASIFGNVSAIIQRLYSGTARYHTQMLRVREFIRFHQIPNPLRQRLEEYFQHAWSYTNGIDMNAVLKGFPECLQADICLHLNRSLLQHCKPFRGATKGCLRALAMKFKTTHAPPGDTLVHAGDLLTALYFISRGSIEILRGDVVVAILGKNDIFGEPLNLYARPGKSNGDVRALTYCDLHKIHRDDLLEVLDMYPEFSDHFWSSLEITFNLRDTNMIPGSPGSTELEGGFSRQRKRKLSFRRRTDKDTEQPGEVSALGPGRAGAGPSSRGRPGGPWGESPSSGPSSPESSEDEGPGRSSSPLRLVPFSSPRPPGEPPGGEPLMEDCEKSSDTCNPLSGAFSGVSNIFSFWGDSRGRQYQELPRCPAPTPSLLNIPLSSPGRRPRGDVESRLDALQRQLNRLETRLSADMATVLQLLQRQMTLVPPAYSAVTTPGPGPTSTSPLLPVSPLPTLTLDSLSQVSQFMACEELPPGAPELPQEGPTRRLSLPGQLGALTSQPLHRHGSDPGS

Point of comparison: `CC1CC(C)CN(C(=O)C(C)N2CCN(S(=O)(=O)c3cccs3)CC2)C1` (stereo not shown), “hERG current change (%, negative = inhibition) at 10uM” value -7.55%. Against it:
- COc1ccc2c(c1OC)C(=O)OC2Nc1nc(-c2cc3cc([N+](=O)[O-])ccc3oc2=O)cs1 (stereo not shown) — higher, 14.9%
- CCCCN(C)CCN1C(=O)C2C(C(=O)Nc3cccc(OC)c3)C3C=CC2(O3)C1C(=O)NC1CCCCC1C (stereo not shown) — lower, -14.7%
- CNC(=O)Nc1ccc(Cn2cc(C(F)(F)F)ccc2=O)cc1 — higher, 16.9%
- O=C(NCc1ccccn1)C(=O)NCC1OCCCN1S(=O)(=O)c1cc(F)ccc1F (stereo not shown) — higher, 6.44%
- Cc1ccc(CNC(=O)C2CCC(=O)N(CC3CCCCC3)C2)o1 (stereo not shown) — higher, 13.2%
- Cc1nc(/N=C\c2ccc(N(C)C)cc2)sc1C — higher, 11.5%
- Cc1cc(C)n(-c2nc3ccccc3n3c(C)nnc23)n1 — higher, 6.03%
- COC(=O)c1ccccc1NC(=O)Nc1cccc(C)n1 — higher, -1.03%
- CC(=O)Nc1ccc(Nc2ncnc3c2cnn3-c2ccccc2)cc1 — higher, 12.9%
- O=Cc1cn(-c2ccccc2)nc1-c1ccc2c(c1)OCCO2 — higher, -0.855%
- O=C(OCC(=O)N1CCCC1)c1cc(Cl)ccc1Cl — higher, 9.45%
- O=C(COC(=O)CCc1c[nH]c2ccccc12)NCc1ccc(Cl)cc1 — lower, -15.5%
- Cc1ccc(S(=O)(=O)NC2CCCCCC2)cc1C(N)=O — higher, 3.28%
- CCCC1=C(C(=O)OCC)C(/C=C/c2ccccc2)n2ncnc2N1 (stereo not shown) — higher, 16.7%
- CC(C)CCNC(=O)CCSCCC(=O)NCCC(C)C — lower, -8.59%
- CCn1c(C2CCN(S(=O)(=O)c3ccc(OC)cc3)CC2)n[nH]c1=S — lower, -18%
- CCCOc1ccc(C(=O)NC(=S)N2CCN(c3cc4c(cc3F)c(=O)c(C(=O)O)cn4CC)CC2)cc1 — higher, 19.5%
- CCOC(=O)c1cc2sccc2n1CC(=O)c1ccc2c(c1)OCCO2 — higher, -7.18%
- CC1CN(S(=O)(=O)c2ccc(NC(=O)c3ccco3)cc2)CC(C)O1 (stereo not shown) — higher, -1.61%
- Cc1occc1-c1nnc(SCC(=O)NC2CCC(C)CC2)o1 (stereo not shown) — lower, -16.2%
- CCOC(=O)Cc1csc(NC(=S)NC(=O)c2cccc([N+](=O)[O-])c2)n1 — higher, -1.83%
- CC(C)c1ccc(NC(=O)[C@@H](C)NC(=O)[C@@H]2Cc3ccccc3CN2)cc1 — lower, -29.2%
- Cn1c(C(=O)O)c(CC(=O)N2CCC(Cc3ccccc3)CC2)c2ccccc21 — lower, -7.61%
- Cc1cc(C)nc(NC(N)=NCCc2c[nH]c3ccccc23)n1 — higher, 11.6%
- CC(C)(C)c1nc(SCC(=O)NC2CCCC2)c2ccccc2n1 — higher, 12.9%
- CCN(CC)C(=O)Cn1cnc2sc(C)c(S(=O)(=O)N3CCC(C)CC3)c2c1=O — lower, -7.84%
- O=C(CN1CCN(C2CCCCC2)CC1)c1c[nH]c2ccccc12 — lower, -27.1%
- CC[C@@H](C)[C@@H](C(=O)N1CCN(C(=O)OC(C)(C)C)CC1)n1cc(CCCCNC(=O)OC(C)(C)C)nn1 — higher, -3.8%
- COc1ccc(N(CC(=O)Nc2cccc(N(C)S(C)(=O)=O)c2)S(=O)(=O)c2ccccc2)cc1Cl — higher, -2.82%
- O=C(O)CC1(CC(=O)Nc2ccc3ccccc3c2)CCCCC1 — higher, 5.81%
- COc1ccc(C)cc1S(=O)(=O)N1CCCC(C(=O)NCC2CCCO2)C1 (stereo not shown) — higher, 0.85%
- COc1ccccc1CNS(=O)(=O)c1c(C)[nH]c(C)c1C(=O)N1CCCC1 — higher, 5.96%
- CCN(c1ccccc1)S(=O)(=O)c1ccc(OC)c(NC(=O)CNCCc2ccccc2)c1.O=C(O)C(=O)O — lower, -14.7%
- COc1ccc(OCc2cccc(C(=O)Nc3cc(C)on3)c2)cc1 — lower, -9.84%
- O=C(Nc1cccc2ccccc12)C12CC3CC(C1)CC(n1cnc([N+](=O)[O-])n1)(C3)C2 — lower, -44.5%
- Cn1c(SCC(=O)NCc2ccc3c(c2)OCO3)nnc1-c1cc2ccccc2cc1O — higher, 10.1%
- Cc1ccc(NC(=O)N2CCCC(C(=O)O)C2)cc1 (stereo not shown) — higher, 5.42%
- CC(NC(=O)CC12CC3CC(CC(C3)C1)C2)C(=O)O (stereo not shown) — higher, 9.99%
- COc1ccc(C(=O)NNC(=O)COC(=O)c2sccc2C)cc1 — higher, 9.39%
- Cc1ccc(C)c(NCC(O)c2ccccc2)c1 (stereo not shown) — higher, -2.21%
- NC(=S)NN=C1c2cc(S(=O)(=O)N3CCOCC3)ccc2-c2ccc(S(=O)(=O)N3CCOCC3)cc21 — higher, 3.26%
- CCC(CC)NC(=O)c1cccc([N+](=O)[O-])c1C — higher, -3.15%
- CP(=O)(Nc1ccc(Cl)cc1)c1nc2c(s1)CCCC2 (stereo not shown) — higher, -3.08%
- O=C(NC(=S)Nc1cccc(Cl)c1N1CCCCC1)c1ccc2c(c1)OCCO2 — higher, 14.8%
- COc1ccc(CC(=O)N/N=C(\C)c2cccnc2)cc1 — higher, -4.38%
- Cc1ccc(S(=O)(=O)CCC(=O)OC(C)C(=O)N2CCc3ccccc32)cc1 (stereo not shown) — lower, -21.2%
- O=C1c2ccccc2C(Nc2ccc(S(=O)(=O)N3CCOCC3)cc2)N1Cc1ccco1 (stereo not shown) — lower, -48.8%
- Cc1ccc(S(=O)(=O)N2CCN(CC(=O)N/N=C\C(Cl)=C\c3ccccc3)CC2)cc1 — lower, -48%
- O=C(Cn1c(=O)oc2cc(S(=O)(=O)N3CCCC3)ccc21)Nc1cccc(C(F)(F)F)c1 — higher, -1.36%
- CC1Cc2cc(/C(O)=C3/C(=O)C(=O)N(CCCn4ccnc4)C3c3ccco3)ccc2O1 (stereo not shown) — higher, 14.7%
- COc1ccc(OCC(=O)Nc2ccc(S(=O)(=O)N3CCCC3)cc2)cc1 — higher, 21.5%
- CCN(CC)S(=O)(=O)c1ccc(N2CCOCC2)c(NC(=O)Cc2cccc3ccccc23)c1 — higher, -1.03%
- COc1ccc(-c2cc(C(=O)Nc3c(C)nn(Cc4ccccc4Cl)c3C)no2)cc1OC — higher, -3.61%
- Cc1nc2nc[nH]n2c(=O)c1CCOC(=O)c1ccccc1F — higher, 20.7%
- Cc1ccc(CN2CCc3c(OCc4ccc(F)cc4)cccc3C2=O)cc1 — higher, 4.43%
- Brc1ccccc1-c1nnc(SCc2nc3ccccc3s2)o1 — higher, 7.76%
- O=C(Cn1ncc2c3ccccc3n(Cc3ccccc3)c2c1=O)NCCCN1CCOCC1 — lower, -45.2%
- CCc1ccc(-c2nc(NC(=S)NC(=O)c3cccs3)sc2C)cc1 — higher, 7.56%
- COc1ccc(C(=O)N2CCCC(Nc3ccc(C(C)C)cc3)C2)c(OC)n1 (stereo not shown) — lower, -23.4%
- Cn1ncc(Cl)c1C(=O)NC1CCCC1 — higher, 3.29%
- CCN1CCN(CCCNC(=O)c2ccc(NC(=O)C3=C(C)OCCS3)cc2)CC1 — higher, 17.6%
- O=C(CSc1nnc(-c2ccc(OC(F)F)cc2)o1)NC(=O)NCc1ccco1 — lower, -23.2%
- NC1=NC(c2cccnc2)n2c(nc3ccccc32)N1 (stereo not shown) — higher, 18.5%
- O=C1OC(Nc2nc(-c3ccc(F)cc3)cs2)c2ccccc21 (stereo not shown) — higher, 15.4%
- CC(C)C[C@H]1CN=C(Nc2ccccc2)N1CC1CCCCC1 — lower, -45.7%
- CCN(C(=O)COC(=O)c1ccc(OC)c(S(=O)(=O)N2CCCc3ccccc32)c1)C1CCS(=O)(=O)C1 (stereo not shown) — higher, 9.15%
- CN(C)CCN=Cc1c(O)n(-c2cccc(C(F)(F)F)c2)c(=O)[nH]c1=O — higher, 7.43%
- O=C(CSc1nnc(-c2ccccc2F)o1)N1CCCC1 — higher, 17.9%
- Cc1ccc(C(=O)C(C)OC(=O)Cc2n[nH]c(=O)c3ccccc23)cc1 (stereo not shown) — lower, -19.7%
- COCc1ccc(CN2CCCC(CO)(Cc3ccccc3C)C2)o1 (stereo not shown) — higher, 2.18%
- COc1ccccc1C(=O)NCCC(=O)NCCC12CC3CC(CC(C3)C1)C2 — lower, -25%
- CCOc1ccc(S(=O)(=O)NCCCN2CCOCC2)c2ccccc12 — lower, -12.3%
- Cc1c(C)c2cc(Cl)c(O)c(CN3CCCC(C)C3)c2oc1=O (stereo not shown) — higher, 8.5%
- COc1ccc(S(=O)(=O)NNC(=S)NCCc2ccccc2)c(OC)c1 — higher, 3.23%
- COc1ccc(C(=O)Nc2ccc(NC(=O)Cc3ccccc3)cn2)cc1 — higher, 14.3%
- COc1ccccc1-c1ccc(SCc2cccc(C)c2)nn1 — lower, -26.6%
- Cc1ccc(-c2[nH]nc3c2C(c2ccc(OC(=O)N4CCOCC4)cc2)C(C#N)=C(N)O3)cc1 (stereo not shown) — higher, 5.41%
- CCOC(=O)CN(C)C(=O)CCc1nnc(-c2ccc(-c3ccccc3)cc2)o1 — lower, -22.5%
- CCC(=O)c1ccc(OCC(=O)N(C)CC(=O)Nc2cccc(F)c2)cc1 — higher, 1.21%
- O=C(Nc1cc(S(=O)(=O)N2CCCCC2)ccc1N1CCOCC1)c1ccc(C(F)(F)F)cc1 — higher, -6.5%
- Cc1ccc(NC(=O)C2=C(C(=O)O)CCCC2)cc1F — higher, 7.33%
- COc1ccc(CNC(=O)CN(c2cc(C)cc(C)c2)S(=O)(=O)c2c(C)noc2C)cc1 — lower, -11.1%
- CC(C)(C)c1ccccc1NC(=O)C1=COCCO1 — lower, -11.3%
- COc1ccc(CCNC(=O)c2ccn[nH]2)cc1OC — higher, 3.09%
